From PubChem BioAssay AID624417 (National Center for Advancing Translational Sciences (NCATS), 2012)
Where “and” joins values, the source holds several entries; their conditions need not be identical. Equal values may be shown once. Among all 410,000 compounds or so, about 6,400 (1.6%) were called active. Inconclusive results, whose numbers are uncertain, are shown with a selection of clear calls. The call rests on the fitted dose curve; in most records, active means well fitted inhibition curve with a large enough effect; inconclusive means small, poorly fitted or top-dose-only effect; inactive means no such curve, though single readings can be large or run the other way. Potencies beside an inconclusive call are fits to weak or partial responses and may not hold up.

These compounds were tested against Glucagon-like peptide 1 receptor (Homo sapiens) (UniProt P43220) (assay: qHTS of GLP-1 Receptor Inverse Agonists (Inhibition Mode)). Details: HEK293 GLP-1R CRE-luciferase, luminescence, 24 h, GLP-1R form is constitutively active; activity change, negative = inhibition: at 38.3 µM (top of the series) unless noted.
How it was run: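 HEK293 cells stably co-expressing constitutively active GLP-1R and a cAMP-responsive luciferase reporter were seeded in DMEM with 10% Nu serum, given compounds after 12 h, and incubated 24 h at 37 deg C. Luminescence was then read.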
Further: nearly all actives have a fitted effect of over 55% in size.
On the % scale 0 is the no-effect control and ±100 the full control effect; potency means the concentration at half of the fitted maximal effect; tags describe the fitted curve by direction and shape.

Sequence of UniProt P43220 (P43220 whole entry, looked up): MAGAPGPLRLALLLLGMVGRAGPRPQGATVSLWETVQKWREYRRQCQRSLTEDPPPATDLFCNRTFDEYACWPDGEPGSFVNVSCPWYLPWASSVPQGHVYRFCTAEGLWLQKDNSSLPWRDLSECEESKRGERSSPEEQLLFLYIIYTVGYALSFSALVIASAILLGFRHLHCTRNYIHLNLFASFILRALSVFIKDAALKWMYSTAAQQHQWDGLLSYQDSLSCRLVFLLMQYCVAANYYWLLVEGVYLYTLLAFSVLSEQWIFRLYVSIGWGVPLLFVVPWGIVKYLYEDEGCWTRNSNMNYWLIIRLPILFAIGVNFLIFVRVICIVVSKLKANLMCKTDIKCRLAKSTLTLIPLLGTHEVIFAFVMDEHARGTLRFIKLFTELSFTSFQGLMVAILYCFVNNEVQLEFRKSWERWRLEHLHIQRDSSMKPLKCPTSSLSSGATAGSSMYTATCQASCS

| SMILES | Potency | activity change, negative = inhibition |
| --- | --- | --- |
| O=C(CCNS(=O)(=O)c1ccccc1)N1CCCCCC1 | inconclusive: 10 µM [inhibitor, single point] |  |
| CC1(Cc2ccc(Cl)c(Cl)c2)C(=O)Nc2ccc(S(=O)(=O)NC3CCCCC3)cc21 (centres undefined) | inconclusive: 11.2 µM [inhibitor, partial curve, poor fit] |  |
| O=C(NCc1cccnc1)c1nn(-c2ccc(F)cc2)nc1CO |  | inactive: 17.2% |
| CN1C2CCC1/C(=C\c1ccccc1F)C(=O)/C2=C/c1ccccc1F | inconclusive: 2 µM [inhibitor, partial curve, poor fit] |  |
| Cc1ccc(-c2nn(-c3ccccc3)cc2NC(=O)CCl)cc1 | inconclusive: 28.2 µM [inhibitor, single point] |  |
| COc1ccc(S(=O)(=O)NC2CC3CCC2C3)cc1Br (centres undefined) | inconclusive: 10 µM [inhibitor, partial curve, poor fit] |  |
| OC(CNCCC(c1ccccc1)c1ccccc1)COc1ccccc1 (centres undefined) | inconclusive: 10 µM [inhibitor, single point] |  |
| Nc1nc(CN2CCN(c3ccccn3)CC2)nc(Nc2ccc(Cl)cc2)n1 | inconclusive: 17.8 µM [inhibitor, partial curve, poor fit] |  |
| Cc1ccc(C(C)C)c(OCC(O)CN2CCc3ccccc3C2)c1 (centres undefined) | inconclusive: 11.2 µM [inhibitor, partial curve, poor fit] |  |
| CC(NC(=O)NC1CCCCC1)c1ccc2c(c1)OCO2 (centres undefined) | inconclusive: 11.2 µM [inhibitor, partial curve, poor fit] |  |
| Cc1ccc(N(CC(=O)NCC(O)c2ccccc2)S(=O)(=O)c2ccc(C)cc2)cc1 (centres undefined) | inconclusive: 4.47 µM [inhibitor, partial curve, poor fit] |  |
| O=C1NCCCC2c3c(cc(Br)c(O)c3Br)OC12N1CCCCC1 (centres undefined) | inconclusive: 15.8 µM [inhibitor, partial curve, poor fit] |  |
| CSCCC(NC(=O)c1ccccc1)C(=O)NC1CC1 (centres undefined) |  | inactive: -3.61% |
| CCN(Cc1ccccc1)C(=O)c1cnn(-c2ccc(F)cc2)c1-n1cccc1 | inconclusive: 22.4 µM [inhibitor, single point] |  |
| Cc1ccc(NC(=O)c2cnn3c2NC(c2ccccc2)=CC3c2ccccc2)cc1 (centres undefined) | inconclusive: 15.8 µM [inhibitor, single point] |  |
| COc1cc(Cl)c(CN2CCCC(CO)(Cc3ccccc3F)C2)cc1OC (centres undefined) | inconclusive: 6.31 µM [inhibitor, partial curve, poor fit] |  |
| CSCCNC(=O)c1ccc2nc(Cc3ccccc3F)oc2c1 | inconclusive: 28.2 µM [inhibitor, single point] |  |
| c1ccc(Nc2nc(N3CCNCC3)nc(N3CCOCC3)n2)cc1 | active: 2.51 µM |  |
| OC1(c2ccc(OC(F)F)cc2)CSC(=Nc2cccnc2)N1C1CC1 (centres undefined) | inconclusive: 28.2 µM [inhibitor, single point] |  |
| COc1ccc2oc(=O)c(-c3nnc(-c4ccc(C)cc4)o3)cc2c1 |  | inactive: 0.0516% |
| O=C(c1cnn2c(C(F)F)cc(C3CC3)nc12)N1CCCC1 |  | inactive: -4.9% |
| CCN(CC)S(=O)(=O)c1cc(NC(=O)c2ccccc2OCc2c(C)noc2C)ccc1C | inconclusive: 28.2 µM [inhibitor, single point] |  |

| SMILES | Potency | activity change, negative = inhibition |
| --- | --- | --- |
| CC(C)c1ccc(COC(=O)CN2C(=O)NC3(CCCCC3C)C2=O)cc1 (centres undefined) | inconclusive: 10 µM [inhibitor, partial curve, poor fit] |  |
| Cc1cc2c(cc1S(=O)(=O)Nc1ccc(OC(F)(F)F)cc1)OCC(=O)N2 | inconclusive: 8.91 µM [inhibitor, single point] and inconclusive: 11.2 µM [inhibitor, partial curve, poor fit] |  |
| OCCCNCc1ccc(N(c2ccccc2)c2ccccc2)cc1 | inconclusive: 7.08 µM [inhibitor, partial curve, poor fit] |  |
| CSc1nc2ccc(NC(=O)c3cccs3)cc2s1 | inconclusive: 28.2 µM [inhibitor, single point] |  |
| Cc1cccc(C(c2c(C)nn(-c3ccccc3)c2N)c2c(C)nn(-c3ccccc3)c2N)c1 | inconclusive: 22.4 µM [inhibitor, single point] |  |
| CC(NC(=O)Nc1cccc([N+](=O)[O-])c1)(C(F)(F)F)C(F)(F)F | inconclusive: 12.6 µM [inhibitor, partial curve, poor fit] |  |
| Cc1cc(Cl)ccc1NS(=O)(=O)c1c(C(=O)N2CCC(C)CC2)c(C)n(C)c1C |  | inactive: 1.4% |
| COc1ccccc1-c1cnc(C(O)c2ccc(Cl)cc2C)[nH]1 (centres undefined) | inconclusive: 28.2 µM [inhibitor, single point] |  |
| Cc1ccc(-c2csc(-c3cc4c([nH]c3=O)CC(c3ccccc3)CC4=O)n2)cc1 (centres undefined) | inconclusive: 1.12 µM [inhibitor, full curve, poor fit] |  |
| O=C(CN(c1ccc(F)cc1)S(=O)(=O)c1ccccc1)NCCSC1CCCCC1 | inconclusive: 28.2 µM [inhibitor, single point] |  |
| O=C(NCCCN1CCN(c2cccc(Cl)c2)CC1)c1sc2ncccc2c1-n1cccc1 | inconclusive: 11.2 µM [inhibitor, partial curve, poor fit] |  |
| Cc1ccnc(N/C=C/C(=O)c2ccc(Br)cc2)c1 | inconclusive: 28.2 µM [inhibitor, single point] |  |
| CCC(=O)Oc1c(Sc2ccc(Cl)cc2)c(C)nn1-c1ccccc1 | inconclusive: 10 µM [inhibitor, partial curve, poor fit] |  |
| Cc1c(NC(=O)OCCNC(=O)COc2ccc(Cl)cc2Cl)sc(=S)n1C | inconclusive: 4.47 µM [inhibitor, partial curve] |  |
| NC(=O)c1c(NC(=O)CS(=O)(=O)c2ccc(Cl)cc2)sc2c1CCCCC2 | inconclusive: 20 µM [inhibitor, partial curve, poor fit] |  |
| COc1ccc(C(CNc2ncnc3sc(C)c(C)c23)N(C)C)cc1 (centres undefined) | inconclusive: 11.2 µM [inhibitor, partial curve, poor fit] |  |
| COc1ccc2[nH]c3c(NCCN(C(C)C)C(C)C)ncnc3c2c1 | inconclusive: 12.6 µM [inhibitor, single point] |  |
| O=C1NN(c2cccc(Br)c2)C(=O)/C1=C\c1ccc(O)cc1 | active: 10 µM |  |
| Cc1ccccc1Nc1nc(-c2cccnc2)cs1 | inconclusive: 25.1 µM [inhibitor, single point] |  |
| Cc1cccc(NCc2ccc(O)c3ncccc23)c1 | inconclusive: 28.2 µM [inhibitor, single point] |  |
| Cc1cccc(C)c1NC(=S)NC1CCCCC1 | inconclusive: 14.1 µM [inhibitor, single point] |  |
| COC(=O)Cc1ccc(NC(=S)N2CCN(c3ccccn3)CC2)cc1 |  | inactive: -12.1% |

| SMILES | Potency | activity change, negative = inhibition |
| --- | --- | --- |
| CCOC(=O)C1=CC[C@@H](c2ccccc2)N(S(=O)(=O)c2ccc(C)cc2)[C@H]1c1ccccc1C | inconclusive: 15.8 µM [inhibitor, single point] |  |
| CN1CCN(CCOCCOc2ccc(Br)cc2Cl)CC1 | inconclusive: 10 µM [inhibitor, partial curve] |  |
| COc1cccc(CN(C)CC(=O)Nc2ccccc2C(=O)Nc2ccccc2)c1OC | inconclusive: 4.47 µM [inhibitor, partial curve, poor fit] |  |
| OCCCN1c2ccccc2Nc2nnc(-c3ccccc3)cc21 | inconclusive: 15.8 µM [inhibitor, single point] |  |
| c1ccc(-c2cc3nc(NCc4cccs4)ccn3n2)cc1 | inconclusive: 5.01 µM [inhibitor, full curve, poor fit] |  |
| C[C@@H]1CN([C@H](C)CO)C(=O)c2cc(Br)cnc2O[C@@H]1CN(C)C(=O)Cc1ccccc1 |  | inactive: 6.15% |
| C=C(C)CN(Cc1ccccc1)C(=S)Nc1ccccc1 | inconclusive: 10 µM [inhibitor, single point] |  |
| O=C(c1ccc2c(c1)N(Cc1ccccc1F)C(=O)c1ccccc1S2(=O)=O)N1CCN(c2ccccn2)CC1 |  | inactive: 7.23% |
| Cc1ccc(-c2nc(SCC(=O)Nc3cc(S(=O)(=O)N4CCCCC4)ccc3Cl)n[nH]2)cc1 | active: 10 µM |  |
| CNC(=S)N/N=C/c1ccco1 | inconclusive: 12.6 µM [inhibitor, partial curve, poor fit] |  |
| COc1ccc(/C=N/NC(=O)c2cccnc2)cc1CN1CCc2cc(OC)c(OC)cc2C1C (centres undefined) |  | inactive: -29.7% |
| O=C(Nc1nc2cc3c(cc2s1)OCCO3)C1=COCCO1 | inconclusive: 1.12 µM [inhibitor, full curve, poor fit] |  |
| Cc1c(C(=O)Nc2ccc(OC(F)(F)F)cc2)sc2nc3n(c(=O)c12)CCC3 | inconclusive: 3.16 µM [inhibitor, full curve, poor fit] |  |
| COC(=O)c1ccc(N=Nc2c(C)[nH]n(-c3ccccc3)c2=O)cc1 |  | inactive: 7.33% |
| Cc1cc(C)c(NC(=S)N(CCCN2CCN(C)CC2)Cc2cccs2)c(C)c1 | inconclusive: 17.8 µM [inhibitor, partial curve, poor fit] |  |
| C=CCn1c(SCC(=O)NCc2ccco2)nnc1C1CCCCC1 | inconclusive: 28.2 µM [inhibitor, single point] |  |
| C=CCSc1ncccc1C(=O)NCCc1ccccc1 | inconclusive: 10 µM [inhibitor, single point] |  |
| COc1cccc(Oc2ccc(C(F)(F)F)cc2NC(=O)CCc2nc3ccccc3c(=O)[nH]2)c1 | inconclusive: 11.2 µM [inhibitor, single point] |  |
| COc1ccc(OC)c(CNc2ccc3c(c2)CCC3)c1 |  | inactive: -4.67% |
| CC1(C)CC(NC(=O)Nc2ccc([N+](=O)[O-])cc2)CC(C)(C)N1 | inconclusive: 10 µM [inhibitor, partial curve, poor fit] |  |
